# Measurements from PubChem BioAssay AID1508623 (National Center for Advancing Translational Sciences (NCATS), 2021).
# Among all 48,000 compounds or so, about 450 (0.94%) were called active. Another 19% or so got no clear call; they are omitted. Calls come from the whole dose curve; as a rule, active = well fitted inhibition curve with a large enough effect; inconclusive = small, poorly fitted or top-dose-only effect; inactive = no such curve, though single readings can be large or run the other way. This is one part of the list.
# Assay: Primary qHTS for Identification of Small Molecule Inhibitors of Huntingtin Promoter Activity; note: nearly all actives have a fitted effect of over 50% in size
# Conditions: HEK293 HTT promoter firefly luciferase reporter (activity 0% = vehicle and -100% = no light), 24 h; series mostly up to 57.5 µM; activity change, negative = inhibition: at the top concentration
# Procedure, shortened: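 Firefly luciferase signal from promoter-reporter HEK293 cells was scaled between vehicle (0%) and zero RLU (-100%). Compounds were tested at final concentrations of up to 57.5 uM over 24 h at 37 degrees C. PTC124 at 50 uM final served as control inhibitor.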
# Potency is the fitted concentration of half-maximal effect.
Compound,"activity change, negative = inhibition",Potency
Cc1cc(C)c2c(=O)cc(C(=O)Nc3sc4c(c3C(=O)NCc3ccccc3)CCCC4)oc2c1,inactive: 0.603%,
Fc1ccc(-n2ncc3c(NCCCN4CCOCC4)ncnc32)cc1,inactive: 10.2%,
COC(=O)c1cc(S(=O)(=O)NCC2CCN(Cc3ccc(F)cc3)CC2)cn1C,inactive: -19.9%,
Cc1ccc2c(c1)N(CCC(=O)NCc1ccc(F)cc1)C(=O)CO2,inactive: -11.7%,
CC=C1C2C=C(C)CC1(N)c1ccc(=O)[nH]c1C2 (configuration not stated),inactive: 0.234%,
CCOCCc1nn2c(=O)cc(COC(=O)CNC(=O)c3ccc(C(C)(C)C)cc3)nc2s1,inactive: -22.3%,
COc1cc(NC(=O)CCc2c(C)nn(-c3ccc4nncn4n3)c2C)cc(OC)c1OC,inactive: -13.4%,
Cc1ccc(Cl)cc1N1CCN(S(=O)(=O)c2ccc3[nH]c4c(c3c2)CCCCC4)CC1,inactive: -25.4%,
Cc1c(CC(=O)NCCc2ccccc2F)c(=O)oc2c(C)c3occ(C(C)(C)C)c3cc12,inactive: -21.8%,
COc1ccc(NC(=O)CSc2cn(CC(=O)N3CCOCC3)c3ccccc23)cc1OC,inactive: -8.02%,
COc1ccccc1CNS(=O)(=O)c1cc(C(=O)Nc2cccc(C(F)(F)F)c2)ccc1F,,active: 28.2 µM
Cc1cccc(OCC(=O)Nc2c(C)ccc3nsnc23)c1C,inactive: -22.3%,
CCc1ccc(S(=O)(=O)c2nnn3c2nc(N2CCC(C)CC2)c2cc(Cl)ccc23)cc1,inactive: -4.16%,
COc1ccc(-c2cc(C(=O)NCc3cc(OC)c(OC)c(OC)c3)[nH]n2)cc1,inactive: -13.7%,
O=C(CSc1ncc(S(=O)(=O)c2ccc(Br)cc2)c(=O)[nH]1)NCc1ccc(Cl)cc1,inactive: -8.54%,
Cc1ccc(C)c(NC(=O)CCN2C(=O)c3ccccc3Sc3ncccc32)c1,inactive: -13.9%,
O=C(Nc1ccccc1)C(Cc1ccccc1)N1Cc2ccccc2C1=O (configuration not stated),inactive: -21.5%,
CCOc1ccc(-c2nc(CSCC(=O)N3CCN(c4cccc(C(F)(F)F)c4)CC3)c(C)o2)cc1,,active: 15.8 µM
Cc1nc(N2C(=O)c3oc4ccccc4c(=O)c3C2c2ccccc2F)sc1C (configuration not stated),inactive: -13.6% [at 11.5 µM],
COc1cccc(N2CCN(S(=O)(=O)c3cc(Br)cc4c3N(C(=O)C3CC3)CC4)CC2)c1,inactive: 19.7%,
CN1CCN(C(CNC(=O)C(=O)Nc2ccccc2)c2ccc3c(c2)OCO3)CC1 (configuration not stated),inactive: -10.4%,
Cc1cccc(-c2noc(CN(C(=O)COc3ccc(C(C)C)cc3)C(C)C)n2)c1,inactive: -25.9%,
Cc1ccc(C)c(CSc2nc3ncccc3[nH]2)c1,inactive: -14.9%,
Cc1ccc(CNC(=O)Cn2c3ncccc3c(=O)n2-c2ccc(C)cc2)cc1,inactive: -7.08%,

Compound,"activity change, negative = inhibition",Potency
CC(C)c1cc(-c2nc(-c3cccc(Cl)c3)no2)n[nH]1,inactive: 23%,
CCOc1ccc(CNC(=O)CSc2c3c(nc4ccc(Cl)cc24)CCCC3)cc1,inactive: -20.7%,
Cc1ccc2oc(C(=O)Nc3sc4c(c3C(=O)NCc3ccco3)CCC4)cc(=O)c2c1,inactive: -0.704% [at 11.5 µM],
Cn1c(C(=O)NCc2cccc(Cl)c2)cc2oc3ccccc3c21,inactive: -15.6%,
C=C(C)[C@@H]1CC[C@]2(C(=O)O)CC[C@]3(C)[C@H](CC[C@@H]4[C@@]5(C)CC[C@H](O)C(C)(C)[C@@H]5CC[C@]43C)[C@@H]12,inactive: -15.2%,
COCCCNC(=O)c1ccc(Cn2c(=O)c3cccn3c3cccnc32)cc1,inactive: -17.9%,
Cc1ccc(Cn2c(CN3CCN(c4cccc(Cl)c4)CC3)nc3c2c(=O)n(C)c(=O)n3C)cc1,inactive: -30.1%,
NC(N)=Nc1nc(CSCCC(N)=NS(N)(=O)=O)cs1,inactive: 18.7%,
Cc1ccc2c(=O)cc(C(=O)Nc3c(C(=O)c4ccc(F)cc4)oc4ccccc34)oc2c1C,inactive: 2.97%,
COc1ccc(NC(=O)CC(C)S(=O)(=O)c2cc3c(cc2C)NC(=O)CO3)cc1OC (configuration not stated),inactive: 4.87%,
O=C(Nc1nnc(S(=O)(=O)N2CCCCCC2)s1)c1ccc(Cl)cc1,inactive: -20.2%,
COc1ccccc1CNC(=O)C1CCN(c2nnc(C)c3c(C)n(-c4ccccc4)nc23)CC1,inactive: -17.4%,
Cc1ccc(NC(=O)CN2C(=O)CC(c3ccc(C)c(C)c3)=Nc3ccccc32)cc1,inactive: 1.01%,
CCC(CC)C(=O)Nc1cc(-c2nc3cccnc3s2)ccc1C,inactive: -3.37%,
Cc1cccc(C)c1OC(=O)CSc1nnc(-c2ccc3c(c2)OCO3)o1,inactive: -1.38%,
CCOC(=O)Cn1c(=O)oc2cc(S(=O)(=O)N3CCN(c4ccc(F)cc4)CC3)ccc21,inactive: -13.1%,
COc1ccc(Nc2c(-c3ccsc3)nc3nc(C)cc(C)n23)cc1,inactive: -11.9%,
COc1ccc(CCNC(=O)c2c(C)oc3ncn(CC(C)C)c(=O)c23)c(OC)c1,inactive: 15.7%,
CCSc1nc2ccccc2c(OCc2cc(C(=O)OC)ccc2OC)c1C(=O)OC,inactive: -34.2%,
COC(=O)c1c(C)sc(-c2c(-c3ccc(OC)c(F)c3)[nH]c3c2c(=O)n(C)c(=O)n3C)c1O,inactive: 17.5%,
CC(C)C(=O)Nc1nnc(S(=O)(=O)N2c3ccccc3CC2C)s1 (configuration not stated),inactive: -8.06%,
CCCOc1cccc(C(=O)Nc2cccc(NC(=O)c3ccc(Cl)cc3Cl)c2)c1,inactive: -21.9%,
Cc1ccc(C(C)C)c(OCC(=O)Nc2ccc(O)c(-c3nc4cc(Cl)ccc4o3)c2)c1,inactive: 0.394%,
